In PubChem BioAssay AID1865 (National Center for Advancing Translational Sciences (NCATS), 2009):
In all, about 280,000 compounds went through this assay and about 540 (0.19%) were called active. Inconclusive results, whose numbers are uncertain, are shown with a selection of clear calls. Calls come from the whole dose curve; as a rule, active = well fitted activation curve with a large enough effect; inconclusive = small, poorly fitted or top-dose-only effect; inactive = flat fitted curve, though single readings scatter. Potencies beside an inconclusive call are fits to weak or partial responses and may not hold up.
Potency is the fitted concentration of half-maximal effect; tags give direction and shape of the fitted curve.

Assay: Quantitative High-Throughput Screen for Regulators of Epigenetic Control; note: nearly all actives have a fitted effect of over 60% in size; for GFP activation: % of control where 0% means no effect
Settings: murine LDR cells, GFP reporter derepression, 30 h; GFP activation: at 53.9 µM (top of the series)
From the text: NIH Molecular Libraries Screening Centers Network [MLPCN] NIH Chemical Genomics Center [NCGC] MLSCN Grant: 1 X01 MH079860-01 Assay Provider: Elisabeth D. Martinez, University of Texas SW Medical Center NCGC Assay Overview: The Locus Derepression (LDR) assay detects the derepression or induction of a GFP reporter that is stably integrated in a genomic region of murine cells that is presumably silenced. Transcription of the GFP reporter is controlled by a CMV promoter, which normally is constitutively active. However, this cell line, termed LDR, was selected for lack of constitutive production of GFP. GFP production can be induced by incubating the cells with histone deacetylase or DNA methyltransferase inhibitors (Martinez et al., 2006). Compounds that derepress or induce this reporter locus are identified by enumerating GFP positive cells using a laser-scanning microplate cytometer (Auld et al., 2006). This assay was screened against the MLSMR earlier (AID 597; (Johnson et al., 2008) and has been rescreened here against the expanded collection.
NCGC Assay Protocol Summary: Three hundred LDR cells in 5 uL per well were dispensed into black, clear-bottom 1536-well plates. Twenty-three nL compound was transferred to the assay plate and cells were incubated 30 hours at 37 C. Medium was removed, cells were washed two times with PBS, and GFP-positive cells were enumerated as fluorescent objects between the sizes of 20 to 120 um width and depth using an Acumen Explorer. References Auld, DS, Johnson, RL, Zhang, YQ, Veith, H, Jadhav, A, Yasgar, A, Simeonov, A, Zheng, W, Martinez, ED, Westwick, JK, Austin, CP, Inglese, J (2006). Fluorescent protein-based cellular assays analyzed by laser-scanning microplate cytometry in 1536-well plate format. Methods Enzymol 414: 566-89. Johnson, RL, Huang, W, Jadhav, A, Austin, CP, Inglese, J, Martinez, ED (2008). A quantitative high-throughput screen identifies potential epigenetic modulators of gene expression. Anal Biochem 375: 237-48. Martinez, ED, Dull, AB, Beutler, JA, Hager, GL (2006). High-content fluorescence-based screening for epigenetic modulators. Methods Enzymol 414: 21-36.
With `COC(=O)c1c(NC(=O)/C(C#N)=C/c2ccccc2)sc2c1C(C(=O)OC)CC2` (stereo unspecified) the Potency was inconclusive: 35.5 µM [activator, single point]. For `COc1ccc(C2c3c(n(C)c4ccccc34)C(=O)N2CC(=O)Nc2cccc(Cl)c2C)cc1` (stereo unspecified), the Potency was inconclusive: 35.5 µM [activator, single point]. In the case of `O=c1c(/C=N/Nc2ccccc2)c(Sc2nnnn2-c2ccccc2)nc2ccccn12`, the Potency is reported as inconclusive: 3.16 µM [activator, partial curve]. In the case of `CC(C)c1ccc(/C=C/C(=O)n2nnc3ccccc32)cc1`, the Potency is reported as inconclusive: 35.5 µM [activator, single point]. For `CC/C=C\C/C=C\C/C=C\C/C=C\C/C=C\C/C=C\CCC(=O)NCCc1ccc(O)c(O)c1`, the Potency was inconclusive: 20 µM [activator, single point]. In the case of `Cc1nnc2n(Cc3ccccc3)c(=O)c3c4c(sc3n12)CN(Cc1ccccc1)CC4`, the Potency is reported as inconclusive: 7.08 µM [activator, single point]. In the case of `CCN(CC)C(=O)CSc1nc2c(sc(=S)n2CC)c(=O)n1-c1ccccc1`, the “GFP activation” value is reported as inactive: -5.72%. For `CCOC(=O)COn1c(=O)c[n+]([O-])c2ccccc21`, the Potency was inconclusive: 22.4 µM [activator, single point]. With `Cc1ccc(CNC(=O)c2ccc3c(c2)NC(=O)C(CS(=O)(=O)Cc2cccc(F)c2)N3)cc1` (stereo unspecified) the Potency was inconclusive: 35.5 µM [activator, single point]. For `O=C(N/N=C/c1ccc(N2CCOCC2)cc1)c1ccc(O)cc1`, the “GFP activation” value was inactive: 1.11%. With `O=C(Nc1nc2c(F)cccc2s1)c1ccc2c(c1)OCCO2` the “GFP activation” value was inactive: -0.242%. With `COc1ccccc1OCCNC(=O)Cc1ccc(Cl)c(Cl)c1` the “GFP activation” value was inactive: 2.6%. In the case of `CN1CCN(S(=O)(=O)c2ccc(NC(=S)NC(=O)C3CCC3)cc2)CC1`, the “GFP activation” value is reported as inactive: -2.02%. In the case of `O=S(=O)(Nc1ccc(Cl)cc1Cl)c1cc(Cl)ccc1Cl`, the “GFP activation” value is reported as inactive: -3.14%. With `CO/C=C\C=C/c1nnn(-c2ccc(Cl)cc2)n1` the Potency was inconclusive: 25.1 µM [activator, single point]. For `COc1ccc(-c2csc(NC(=S)NC(=O)/C=C/c3ccco3)n2)cc1Br`, the Potency was inconclusive: 17.8 µM [activator, single point]. In the case of `COC(=O)c1c(NC(=O)c2ccccc2)sc(C(N)=O)c1C`, the Potency is reported as inconclusive: 25.1 µM [activator, single point]. In the case of `Cc1cccc(-c2cc(-c3ccccc3)nc(SCC(=O)Nc3ccccc3)c2C#N)c1`, the Potency is reported as inconclusive: 7.94 µM [activator, partial curve]. With `CCC(=O)Nc1nc(C)c(Oc2ccccc2)c(=O)[nH]1` the Potency was inconclusive: 3.16 µM [activator, single point]. With `CCOC(=O)/C(=C/c1c(C)n(C)c2ccc([N+](=O)[O-])cc12)C(C)=O` the Potency was inconclusive: 25.1 µM [activator, single point]. With `Cc1cccc(NC(=O)C2CCN(S(=O)(=O)c3c(C)noc3/C=C/c3ccco3)CC2)c1` the Potency was inconclusive: 35.5 µM [activator, single point]. With `COC(=O)c1ccc(-c2ccc(C(c3c(C)[nH][nH]c3=O)c3c(C)[nH][nH]c3=O)o2)cc1` the “GFP activation” value was inactive: 0.766%. In the case of `O=C(Nc1cccc(OCc2cc(=O)n3ccccc3n2)c1)Nc1cccc(C(F)(F)F)c1`, the Potency is reported as inconclusive: 7.08 µM [activator, single point]. With `Cc1ccc2c(=O)c(C(=O)c3ccc(Cl)cc3)cn(CC(=O)Nc3ccc4c(c3)OCCO4)c2n1` the Potency was inconclusive: 31.6 µM [activator, single point]. In the case of `O=Cc1ccc(-c2ccccc2C(=O)O)o1`, the “GFP activation” value is reported as inactive: 0.0473%. In the case of `CNc1ccccc(C(=O)/C=C/c2ccccc2OC)c1=O`, the Potency is reported as inconclusive: 35.5 µM [activator, single point]. For `O=C(Nc1ccccc1C(=O)OCc1cc(=O)n2ccsc2n1)c1ccccc1Cl`, the Potency was inconclusive: 25.1 µM [activator, single point]. With `Cc1nn(-c2ccccc2)c(Cl)c1/C=N/Nc1ccc(Cl)c(C(=O)O)c1` the “GFP activation” value was inactive: -2.99%. With `Cc1cc(=O)n(Cc2ccccc2)c2c1c(C)nn2C` the “GFP activation” value was inactive: 0%. In the case of `Cc1ccc(-n2nc(-c3ccco3)cc2C(=O)O)cc1`, the “GFP activation” value is reported as inactive: 2.13%. With `Cc1ccc(Cl)cc1NC(=O)Nc1cccc(OCc2cc(=O)n3ccccc3n2)c1` the Potency was inconclusive: 28.2 µM [activator, single point]. With `CN(C)S(=O)(=O)c1ccc2c(c1)/C(=C/c1cc3c([nH]1)CCCC3)C(=O)N2` the Potency was active: 7.94 µM. For `Cc1nnc(C)n1/N=C/c1cc2ccccc2nc1Cl`, the Potency was inconclusive: 35.5 µM [activator, single point]. With `Cc1nc(-c2cccc(-c3noc(C)n3)c2)no1` the “GFP activation” value was inactive: 0%. With `COc1ccc(-c2cc(-c3ccccc3)nc(SCC(=O)Nc3ccccc3F)c2C#N)cc1` the Potency was inconclusive: 7.08 µM [activator, partial curve]. In the case of `Cc1ccc(NC(=O)N2CCN(c3cc(-c4noc(C)n4)ccc3C)CC2)c(F)c1`, the “GFP activation” value is reported as inactive: 0%.
